The supplement of paper PMC4967469
The IC50 comes from the fitted curve, where viability falls to half of the control; a fit beyond the top or the lowest dose is shown as a bound at that dose. AUC, from the same fit, is the share of area under the viability curve across the 256-fold dose range; the more sensitive the line, the further below 1. A top dose marked as inferred was derived from the fitted curves, not read from the paper.

Legend:
Assay in all cases: Viability of human cancer cell lines after 72 h of drug (GDSC screen)
XMD15-27 = compound: C=CC(=O)Nc1ccc(C(=O)c2sc(Nc3ccc(N4CCN(C)CC4)cc3OC)nc2N)cc1 [XMD15-27]; conditions: top dose 10.24 µM; top dose inferred
Procedure: (§1)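 Human cancer cell lines in 384-well plates, medium with 10% serum, drug for 72 h over a 256-fold dose range (nine 2-fold or five 4-fold steps up to the top dose). Adherent lines were fixed and stained with the nucleic acid dye Syto60, suspension lines read with resazurin; signal relative to control wells, capped at 0 and 100%. One two-parameter sigmoid per drug and line, fitted in a mixed model over all curves with the slope shared within a line.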

SL 0101-1 = compound: CC(=O)O[C@@H]1[C@@H](OC(C)=O)[C@@H](O)[C@H](Oc2c(-c3ccc(O)cc3)oc3cc(O)cc(O)c3c2=O)O[C@H]1C [SL 0101-1]; conditions: top dose 10 µM; top dose inferred
Procedure: as §1

AS605240 = compound: O=C1NC(=O)/C(=C\c2ccc3nccnc3c2)S1 [AS605240]; conditions: top dose inferred
Procedure: as §1

| Cell Line | AUC (XMD15-27) | IC50 (XMD15-27) [µM] | AUC (SL 0101-1) | IC50 (SL 0101-1) [µM] | AUC (AS605240) | IC50 (AS605240) [µM] |
| --- | --- | --- | --- | --- | --- | --- |
| 786-0 (kidney, adherent) | 0.971 | > 10.2 | 0.976 | > 10 | – | – |
| A172 (glioma, adherent) | 0.983 | > 10.2 | 0.987 | > 10 | – | – |
| A673 (rhabdomyosarcoma, adherent) | 0.988 | > 10.2 | 0.974 | > 10 | – | – |
| AGS (stomach, adherent) | 0.99 | > 10.2 | 0.989 | > 10 | – | – |
| BCPAP (thyroid, adherent) | 0.989 | > 10.2 | 0.985 | > 10 | – | – |
| BHY (head and neck, adherent) | 0.978 | > 10.2 | 0.944 | > 10 | – | – |
| BPH-1 (prostate, adherent) | 0.976 | > 10.2 | 0.977 | > 10 | – | – |
| BxPC-3 (pancreas, adherent) | 0.982 | > 10.2 | 0.979 | > 10 | – | – |
| CAL-54 (kidney, adherent) | 0.985 | > 10.2 | 0.927 | > 10 | – | – |
| CAL-62 (thyroid, adherent) | 0.987 | > 10.2 | 0.967 | > 10 | – | – |
| CFPAC-1 (pancreas, adherent) | 0.982 | > 10.2 | 0.972 | > 10 | – | – |
| CHP-134 (neuroblastoma, suspension) | 0.98 | > 10.2 | 0.783 | 5.48 | – | – |
| CHSA0011 (chondrosarcoma, adherent) | 0.974 | > 10.2 | 0.971 | > 10 | – | – |
| ChaGo-K-1 (non-small cell lung carcinoma, adherent) | 0.982 | > 10.2 | 0.944 | > 10 | – | – |
| ES3 (Ewing sarcoma, adherent) | 0.961 | > 10.2 | 0.973 | > 10 | – | – |
| GAMG (glioma, adherent) | 0.985 | > 10.2 | 0.955 | > 10 | – | – |
| H2591 (mesothelioma, adherent) | 0.982 | > 10.2 | 0.974 | > 10 | – | – |
| H-EMC-SS (chondrosarcoma, adherent) | 0.977 | > 10.2 | 0.981 | > 10 | – | – |
| HCC1806 (breast, adherent) | 0.98 | > 10.2 | 0.947 | > 10 | – | – |
| HCC1954 (breast, adherent) | 0.969 | > 10.2 | 0.816 | 6.72 | – | – |
| HCT-116 (large intestine, adherent) | 0.971 | > 10.2 | 0.965 | > 10 | – | – |
| HLE (liver, adherent) | 0.989 | > 10.2 | 0.985 | > 10 | – | – |

| Cell Line | AUC (XMD15-27) | IC50 (XMD15-27) [µM] | AUC (SL 0101-1) | IC50 (SL 0101-1) [µM] | AUC (AS605240) | IC50 (AS605240) [µM] |
| --- | --- | --- | --- | --- | --- | --- |
| HOS (osteosarcoma, adherent) | 0.991 | > 10.2 | 0.981 | > 10 | – | – |
| HT-29 (large intestine, adherent) | 0.971 | > 10.2 | 0.988 | > 10 | – | – |
| HT-144 (melanoma, adherent) | 0.963 | > 10.2 | 0.949 | > 10 | – | – |
| HT-1197 (bladder, adherent) | 0.985 | > 10.2 | 0.985 | > 10 | – | – |
| HUTU-80 (digestive system, adherent) | 0.98 | > 10.2 | 0.991 | > 10 | – | – |
| HuP-T4 (pancreas, adherent) | 0.968 | > 10.2 | 0.969 | > 10 | – | – |
| IHH-4 (thyroid, semi-adherent) | 0.992 | > 10.2 | 0.993 | > 10 | – | – |
| JAR (urogenital system, adherent) | 0.972 | > 10.2 | 0.984 | > 10 | – | – |
| JHU-011 (head and neck, adherent) | 0.972 | > 10.2 | 0.975 | > 10 | – | – |
| K-562 (chronic myeloid leukaemia, suspension) | 0.981 | > 10.2 | 0.983 | > 10 | – | – |
| KG-1 (acute myeloid leukaemia, suspension) | 0.762 | 3.29 | 0.99 | > 10 | – | – |
| KON (head and neck, adherent) | 0.985 | > 10.2 | 0.987 | > 10 | – | – |
| KYSE-510 (oesophagus, adherent) | 0.992 | > 10.2 | 0.96 | > 10 | – | – |
| LB771-HNC (head and neck, adherent) | 0.982 | > 10.2 | 0.978 | > 10 | – | – |
| LB996-RCC (kidney, adherent) | 0.983 | > 10.2 | 0.936 | > 10 | – | – |
| LK-2 (lung squamous cell carcinoma, adherent) | 0.989 | > 10.2 | 0.972 | > 10 | – | – |
| LNCaP-Clone-FGC (prostate, adherent) | 0.951 | > 10.2 | 0.984 | > 10 | – | – |
| LOXIMVI (melanoma, semi-adherent) | 0.99 | > 10.2 | 0.989 | > 10 | – | – |
| LU-65 (large cell lung carcinoma, suspension) | 0.983 | > 10.2 | 0.986 | > 10 | – | – |
| MCF7 (breast, adherent) | 0.986 | > 10.2 | 0.974 | > 10 | – | – |
| MDA-MB-157 (breast, adherent) | 0.988 | > 10.2 | 0.937 | > 10 | – | – |
| MDA-MB-231 (breast, adherent) | 0.986 | > 10.2 | 0.982 | > 10 | – | – |

| Cell Line | AUC (XMD15-27) | IC50 (XMD15-27) [µM] | AUC (SL 0101-1) | IC50 (SL 0101-1) [µM] | AUC (AS605240) | IC50 (AS605240) [µM] |
| --- | --- | --- | --- | --- | --- | --- |
| MDA-MB-468 (breast, adherent) | 0.979 | > 10.2 | 0.977 | > 10 | – | – |
| MFE-319 (endometrium, adherent) | 0.989 | > 10.2 | 0.981 | > 10 | – | – |
| MKN1 (stomach, adherent) | 0.985 | > 10.2 | 0.958 | > 10 | – | – |
| MOLM-13 (acute myeloid leukaemia, suspension) | 0.956 | > 10.2 | 0.975 | > 10 | – | – |
| MZ7-mel (melanoma, adherent) | 0.983 | > 10.2 | 0.976 | > 10 | – | – |
| NB7 (neuroblastoma, adherent) | 0.986 | > 10.2 | 0.986 | > 10 | – | – |
| NCI-H358 (lung adenocarcinoma, adherent) | 0.953 | > 10.2 | 0.96 | > 10 | – | – |
| NCI-H460 (large cell lung carcinoma, adherent) | 0.99 | > 10.2 | 0.959 | > 10 | – | – |
| NCI-H522 (lung adenocarcinoma, adherent) | 0.98 | > 10.2 | 0.954 | > 10 | – | – |
| NCI-H647 (non-small cell lung carcinoma, adherent) | 0.939 | > 10.2 | 0.976 | > 10 | – | – |
| NCI-H1355 (lung adenocarcinoma, adherent) | 0.978 | > 10.2 | 0.939 | > 10 | – | – |
| NCI-H2009 (lung adenocarcinoma, adherent) | 0.986 | > 10.2 | 0.987 | > 10 | – | – |
| NCI-H2030 (lung adenocarcinoma, adherent) | 0.962 | > 10.2 | 0.98 | > 10 | – | – |
| NCI-H2085 (lung adenocarcinoma, adherent) | 0.986 | > 10.2 | 0.981 | > 10 | – | – |
| NUGC-3 (stomach, adherent) | 0.984 | > 10.2 | 0.946 | > 10 | – | – |
| OAW-28 (ovary, adherent) | 0.983 | > 10.2 | 0.944 | > 10 | – | – |
| OSC-19 (head and neck, adherent) | 0.987 | > 10.2 | 0.987 | > 10 | – | – |
| OVCAR-3 (ovary, adherent) | 0.987 | > 10.2 | 0.949 | > 10 | – | – |
| PA-1 (ovary, adherent) | 0.932 | > 10.2 | 0.979 | > 10 | – | – |
| PANC-10-05 (pancreas, adherent) | 0.982 | > 10.2 | 0.953 | > 10 | – | – |
| PC-3 (prostate, adherent) | 0.975 | > 10.2 | 0.939 | > 10 | – | – |
| RERF-GC-1B (stomach, adherent) | 0.951 | > 10.2 | 0.985 | > 10 | – | – |

| Cell Line | AUC (XMD15-27) | IC50 (XMD15-27) [µM] | AUC (SL 0101-1) | IC50 (SL 0101-1) [µM] | AUC (AS605240) | IC50 (AS605240) [µM] |
| --- | --- | --- | --- | --- | --- | --- |
| RH-41 (rhabdomyosarcoma, adherent) | 0.992 | > 10.2 | 0.96 | > 10 | – | – |
| RS4-11 (leukaemia, suspension) | 0.948 | > 10.2 | 0.984 | > 10 | – | – |
| SCC-15 (head and neck, adherent) | 0.98 | > 10.2 | 0.943 | > 10 | – | – |
| SKM-1 (haematopoietic neoplasm, suspension) | – | – | 0.837 | 7.69 | – | – |
| VMRC-RCW (kidney, adherent, top dose 20 µM) | – | – | – | – | 0.932 | > 20 |
| VMRC-RCZ (kidney, adherent, top dose 20 µM) | – | – | – | – | 0.909 | > 20 |
| WIL2-NS (lymphoid neoplasm, suspension, top dose 20 µM) | – | – | – | – | 0.582 | 2.01 |
| WM278 (melanoma, adherent, top dose 20 µM) | – | – | – | – | 0.793 | 10.5 |
| WM793B (melanoma, adherent, top dose 20 µM) | – | – | – | – | 0.949 | > 20 |
| WM1552C (melanoma, adherent, top dose 20 µM) | – | – | – | – | 0.836 | 13.4 |
| WM-115 (melanoma, adherent, top dose 20 µM) | – | – | – | – | 0.832 | 17 |
| WSU-DLCL2 (B-cell lymphoma, suspension, top dose 20 µM) | – | – | – | – | 0.942 | > 20 |
| WSU-NHL (lymphoid neoplasm, suspension, top dose 20 µM) | – | – | – | – | 0.725 | 4.95 |
| YAPC (pancreas, adherent, top dose 20 µM) | – | – | – | – | 0.948 | > 20 |
| YH-13 (glioma, adherent, top dose 20 µM) | – | – | – | – | 0.92 | > 20 |
| YKG-1 (glioma, adherent, top dose 20 µM) | – | – | – | – | 0.914 | > 20 |
| YMB-1-E (breast, adherent, top dose 20 µM) | – | – | – | – | 0.945 | > 20 |
| YT (lymphoid neoplasm, suspension, top dose 20 µM) | – | – | – | – | 0.485 | 1.14 |
| huH-1 (liver, adherent, top dose 20 µM) | – | – | – | – | 0.984 | > 20 |
| no-10 (glioma, adherent, top dose 20 µM) | – | – | – | – | 0.91 | > 20 |
| no-11 (glioma, adherent, top dose 20 µM) | – | – | – | – | 0.838 | 18.7 |
